# Screen size: about 45,000 compounds; about 200 (0.44%) were called active. About 7% were inconclusive and are not listed. The call rests on the fitted dose curve; in most records, active means well fitted activation curve with a large enough effect; inconclusive means small, poorly fitted or top-dose-only effect; inactive means no such curve, though single readings can be large or run the other way. This is one part of the list.
# Assay: qHTS of TDP-43 Inhibitors: NCGC Sytravon Library Screen; further: nearly all actives have a fitted effect of over 55% in size; on growth rescue (activation): 0% is about no effect
# Details: yeast TDP-43 toxicity rescue, BacTiter-Glo growth, 24 h; series mostly up to 46.1 µM; growth rescue (activation): at the top concentration
# Procedure, shortened: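 TDP-43-expressing yeast, pregrown in raffinose, seeded at OD600 0.02 in galactose medium with compound for 24 hr at 30 deg C. Growth read by BacTiter-Glo luminescence, so rescue of toxicity appears as activation.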
# Potency means the concentration at half of the fitted maximal effect.
SMILES,growth rescue (activation),Potency
CCc1nc2ccc(C(=O)Nc3cc(-c4ccccc4)ccc3OC)cn2c1N(C)CCCc1ccccc1,inactive: 13.9%,
Cc1cc(O)ccc1N1C(=O)c2cccc3cc([N+](=O)[O-])cc(c23)C1=O,inactive: 7.97%,
CC(=O)c1ccc(OCCCC(=O)Nc2ccc(C)c(S(=O)(=O)N3CCOCC3)c2)cc1,inactive: 0.583%,
COc1ccc(CN(Cc2ccc(C(=O)O)cc2)C(=S)Nc2ccccc2Cl)cc1OC,inactive: 7.93%,
Cc1ccnc2nc(C(=O)OCC(=O)NC(=O)NCc3ccco3)nn12,inactive: 3.39%,
CCC(=O)NNC(=O)c1c(O)c2ccccc2[nH]c1=O,inactive: -10.2%,
Cn1c(=O)n(C)c2cc(S(=O)(=O)N3CCCCC3)ccc21,inactive: 6.72%,
FC(F)(F)c1cnc(Sc2ncn[nH]2)c(Cl)c1,inactive: -1.87%,
O=C(N/N=C/C1=C(N2CCOCC2)C(=C\c2ccccc2)/CC1)Nc1ccccc1,inactive: 6.05%,
COc1ccc(NC(=O)C2CCCN(C(=O)Nc3ccc(F)cc3)C2)cc1OC (stereo not drawn),inactive: 6.45%,
CCOc1ccccc1C(=O)NCC(=O)N1CCC(C)CC1,inactive: 11.8%,
C/C(N)=C(/C#N)C(=O)CSc1nc(C2CCCCC2)n(-c2ccccc2)n1,inactive: 21.2%,
COc1ccccc1CNCC(=O)N1CC(=O)Nc2ccccc21,inactive: -6.28%,
NS(=O)(=O)c1cccc(NC(=O)Cn2nc(C(=O)O)c3ccccc3c2=O)c1,inactive: -24.2%,
COc1ccccc1Oc1ccc(N/C=C/C(=O)C(C)(C)C)cc1,inactive: 4.42%,
O=C(NCc1cccnc1)c1cc(C2CCCN(C(=O)c3cccc(O)c3)C2)on1 (stereo not drawn),inactive: 19.8%,
CN(C)S(=O)(=O)c1cccc(C(=O)Nc2ccc(C(=O)Nc3cccc(S(N)(=O)=O)c3)cc2)c1,inactive: -18.9%,
COc1ccccc1NC(=O)C1Cc2ccccc2CN1C(=O)c1ccco1 (stereo not drawn),inactive: -0.528%,
O=C(CC(Nc1ccc(F)cc1)C(=O)O)c1ccccc1 (stereo not drawn),inactive: 18%,
O=C(NCc1ccc(F)cc1)N1CCN(S(=O)(=O)c2ccccc2F)CC1,inactive: 16.3%,
O=C(COC(=O)/C=C/c1cccc(C(F)(F)F)c1)NCc1ccccc1,inactive: 10.4%,
Cc1cc(NC(=O)CCCN2C(=O)/C(=C/c3cccs3)SC2=S)no1,inactive: 13%,

SMILES,growth rescue (activation),Potency
CCOC(=O)c1ccc2nc(NC(C)=O)sc2c1,inactive: 9.2%,
CC(=O)N1N=C(c2cccs2)CC1c1cccc([N+](=O)[O-])c1 (stereo not drawn),inactive: 25.2%,
CCOc1ccc(CCNS(=O)(=O)c2ccc3c(c2)NC(=O)CC(=O)N3)cc1OCC,inactive: -7.67%,
COc1cc(OC)c(S(=O)(=O)Nc2ccc(C(=O)O)cc2)cc1S(=O)(=O)Nc1ccc(C(=O)O)cc1,inactive: -14.8%,
CCCN(CCC)CCCNC(=O)c1cc2c(=O)n(CC)c3ccccc3c2s1,inactive: -14%,
Cc1ccc(Nc2cc(=O)[nH]c(=O)[nH]2)cc1C,,inactive
CCOC(=O)C1CCN(C(=O)C(C)c2ccc([N+](=O)[O-])cc2)CC1 (stereo not drawn),inactive: 21.4%,
Cc1ccccc1-n1nc(C)c(N=O)c1N,inactive: -2.77%,
CC(C)CN(C)C(=O)CCc1nnc(Cc2cccc(C(F)(F)F)c2)o1,inactive: 4.78%,
Cc1cc(N/N=C/c2ccc(O)cc2O)nc(-n2nc(C)cc2C)n1,inactive: 9.14%,
COc1cc(OC)c(CN2CCc3c([nH]c4ccccc34)C2)cc1Br,inactive: -9.64%,
Cc1ccc(C(=O)C2CCN(CC(=O)N3CCN(c4ccc(F)cc4)CC3)CC2)cc1,inactive: 8.69%,
CS/C(=N\S(=O)(=O)c1cccs1)NC(=O)CSc1nc2ccccc2s1,inactive: 8.34%,
CCOc1ccc(NC(=O)COc2ccc(N3CC(C(N)=O)CC3=O)cc2)cc1 (stereo not drawn),inactive: -7.42%,
CCOCCCNC(=O)c1ccc2c(c1)ncn2-c1ccc(C)cc1C,inactive: 11%,
COc1ccc(/C=C2\SC(=S)N(CCC(=O)NC3CCCC3)C2=O)cc1OC,inactive: 11.6%,
C=CCNC(=O)CN1C(=O)NC(C)(c2ccc(OC)cc2)C1=O (stereo not drawn),inactive: 16.3%,
O=C1N(Cc2cccc(Cl)c2)C[C@@H]2C[C@@H](c3cccn3-c3nccs3)N3CCC[C@@]123,inactive: 10.4%,
CCOC(=O)c1oc2ccccc2c1NC(=O)CN1CCN(C)CC1,inactive: 19.8%,
S=C(Nc1ccc(Cl)cc1)c1nc2ccccc2[nH]1,,active: 10 µM
N#Cc1ccccc1OCC(=O)NNC(=O)CCC1CCCC1,inactive: 11.1%,
COc1ccc(/C=N/NC(=O)c2ccoc2C)cc1OC,inactive: 3.63%,

SMILES,growth rescue (activation),Potency
CC(C(=O)NCC1CCCO1)c1ccc([N+](=O)[O-])cc1 (stereo not drawn),inactive: 5.27%,
COc1ccc(OCC#CCN2CC(C)OC(C)C2)cc1 (stereo not drawn),inactive: 1.76%,
O=C(Nc1ccc2ncccc2c1)c1ccccc1,inactive: -0.868%,
CNC(=O)CSc1nc(-c2ccccc2)c(-c2ccccc2)o1,inactive: 2.03%,
COCCNC(=O)C(c1ccc(OC)cc1)N(CCOC)C(=O)CCC(=O)Nc1nccs1 (stereo not drawn),inactive: -12.3%,
CC(=O)N1C(=O)N(C(C)=O)C2C1N(C)C(=O)N2C(C)=O (stereo not drawn),inactive: 7.55%,
CCn1cc(-c2ccnc3cc(C(=O)O)nn23)c(C)n1,inactive: -6.16%,
CC(C)n1nc(C(=O)Oc2cccc(Cl)c2Cl)c2ccccc2c1=O,inactive: 11.8%,
CCCOc1ccc(N2C(=O)CC(N3CCN(CCN=CC4C(=O)CC(C)(C)CC4=O)CC3)C2=O)cc1 (stereo not drawn),inactive: 39.4%,
CCNC(=S)N(Cc1ccco1)Cc1cc2cc3c(cc2[nH]c1=O)OCCO3,inactive: 24.6%,
O=C(CSc1ccc2ccccc2c1)Nc1ncccn1,inactive: 18.6%,
C/C(=N\NC(=O)c1ccco1)c1cccc2ccccc12,inactive: 20.5%,
O=C(NC1CCCc2c1cnn2-c1ccc(F)cc1F)c1ccccn1 (stereo not drawn),inactive: 22.1%,
COc1ccccc1CNC(=O)CN1CCN(c2ccc(C(C)=O)cc2)CC1,inactive: -17.1%,
NNC(=O)/C(=C\c1cccs1)NC(=O)c1ccccc1,inactive: 18.8%,
O=C(Nc1ccc(Cl)c(S(=O)(=O)N2CCOCC2)c1)c1ccc(OCC2CCCO2)cc1 (stereo not drawn),inactive: 13.2%,
COc1ccc(NS(=O)(=O)c2ccc(C)c(NC(=O)C3CCCO3)c2)cc1 (stereo not drawn),inactive: 17%,
COc1ccc(C(CNC(=O)c2cccc(S(=O)(=O)N3CCc4ccccc43)c2)N(C)C)cc1 (stereo not drawn),inactive: -6.42%,
Nc1c(Br)c(=O)[nH]c(=O)n1-c1ccc(F)cc1,inactive: 5.88%,
COc1cc(OC)cc(C(=O)OCc2ccc([N+](=O)[O-])cc2)c1,inactive: -5.25%,
Cc1ccc(NC(=O)c2cccc3cccnc23)cc1,inactive: 9.76%,
COc1cc(C(=O)CSc2nncn2C)cc(OC)c1OC,inactive: 13.5%,

SMILES,growth rescue (activation),Potency
CC(CCc1ccccc1)NC(=O)COC(=O)c1cc(NS(=O)(=O)c2ccc(Cl)c([N+](=O)[O-])c2)ccc1O (stereo not drawn),inactive: 14.9%,
COc1ccc(CCNC(=O)COC(=O)c2ccc(OC)cc2OC)cc1,inactive: 14.8%,
CCN(CC)CCNC(=O)c1ccc(NC(=O)Cc2cccc3ccccc23)cc1,inactive: -16.6%,
CCCCCC(=O)c1c(C)[nH]c(C(=O)OCC)c1C,inactive: 18.6%,
O=C(COC(=O)COc1cccc(Br)c1)NCc1ccc2c(c1)OCO2,inactive: 10.7%,
COCCNC(=O)NC(=O)CN1CCN(C(c2ccccc2)c2ccccc2)CC1,inactive: -5.85%,
COc1ccc(OCC(=O)Nc2ccccc2C(=O)NC(C)C)cc1,inactive: 8.08%,
COc1ccc2nc(SCC(=O)NCc3ccc4c(c3)OCO4)[nH]c2c1,inactive: 0.669%,
O=C(O)COc1ccccc1/C=N/NC(=O)COc1ccc(-c2ccccc2)cc1,inactive: 4.86%,
O=C(COC(=O)C1=COCCO1)NC1CCCCCCC1,inactive: 13.8%,
O=C(N/N=C/c1ccc(OC(=O)c2ccco2)cc1)c1ccccn1,inactive: 1.32%,
O=C(COc1ncnc2c(Cl)cc(Cl)cc12)Nc1cc([N+](=O)[O-])ccc1Cl,inactive: 18.3%,
FC(F)(F)c1cc(Cl)c2nnc(-c3cccnc3)n2c1,inactive: -6.54%,
COc1ccccc1C(=O)NC(=S)Nc1ccc(NC(=O)c2cccs2)cc1,inactive: 20.8%,
COC(=O)N/N=C/c1ccccc1OCCOc1ccc(OC)cc1,inactive: 14.3%,
Cc1c(C(=O)N2CCCC(C)C2)sc2ncnc(N3CCCCC3C)c12 (stereo not drawn),inactive: 23.7%,
O=[N+]([O-])c1ccc(N/N=C/c2c[nH]c3ccccc23)cc1,inactive: 31%,
O=C(/C=C/c1cccc(F)c1)Nc1cc(S(=O)(=O)N2CCOCC2)ccc1N1CCCC1,inactive: 0.965%,
COc1ccc(/C=N\NC(=O)COc2ccccc2)c(C(=O)O)c1OC,inactive: -4.94%,
COCc1ccc(C(=O)NC(C)c2cnn(-c3ccccc3C)c2C)o1 (stereo not drawn),inactive: -9.72%,
CS(=O)(=O)N1CCN(c2ccc(NC(=S)NC(=O)c3cccs3)cc2)CC1,inactive: -1.81%,
COc1ccc(CNC(=O)c2cccc3c(-c4cccc(C(N)=O)c4)coc23)cc1OC,inactive: 2.82%,

SMILES,growth rescue (activation),Potency
CC(C)(C)NC(=O)NC(=O)COC(=O)c1cccc(F)c1,inactive: 3.26%,
CN(C)S(=O)(=O)c1cccc(NC(=S)N2CCCCC2CO)c1 (stereo not drawn),inactive: 12.1%,
O=C(CCN1C(=O)C2CC=CCC2C1=O)Nc1cccc(Cl)c1 (stereo not drawn),inactive: 16.1%,
c1ccc(C2=NN(c3ccccc3)C(c3ccco3)C2)cc1 (stereo not drawn),inactive: 0.98%,
Cc1ccc(S(=O)(=O)N2CCN(c3ccccc3)CC2)cc1C(N)=O,inactive: 3.02%,
COc1ccccc1CCC(=O)OCC(=O)Nc1ccc(C(N)=O)cc1,inactive: 17%,
O=C(CCSCCc1ccccn1)Nc1ccc(Cc2ccncc2)cc1,inactive: 6.5%,
COC(=O)NC1CCC(NC(=O)OC)CC1 (stereo not drawn),inactive: 4.56%,
CCOC(=O)CC1CCCCN1Cc1nc(-c2ccc(F)c(OC)c2)oc1C (stereo not drawn),inactive: 3.86%,
O=C(CS(=O)(=O)c1ccccc1)Nc1nccs1,inactive: -0.221%,
O=C(NN=C1CCCC1)c1cc(-c2ccc(F)cc2)nc2ccccc12,inactive: 3.63%,
CN(C)C(=O)CN1C(=O)NC(c2ccccc2)(c2ccccc2)C1=O,inactive: -2.36%,
S=C(c1ccc(Cl)cc1)N1CCN(Cc2ccccc2)CC1,inactive: 2.56%,
Cc1nc(SCC(=O)NC2CC2)c2c(C)c(C)sc2n1,inactive: 12.2%,
CCN(c1ccccc1)S(=O)(=O)c1cc(NC(=O)COC(=O)C2CC2)ccc1Cl,inactive: 5.66%,
COc1cc2cc(C)c3nnc(SCC(=O)Nc4cc(C)on4)n3c2cc1OC,inactive: 10.6%,
CC(C)c1nc(SCC(=O)c2c[nH]c3ccccc23)n[nH]1,inactive: 27.7%,
O=c1[nH]c(Cc2ccc(F)cc2)nc2scc(-c3ccc(F)cc3)c12,inactive: 19.8%,
O=C(c1coc2ccc(O)c(CN3CCOCC3)c12)C1CC1,inactive: 15.6%,
C=CCn1c(O)c(N=NC(=O)CNC(=O)/C=C/c2ccc(OC)cc2)c2ccccc21,inactive: -7.75%,
